# The data scatter; read single values as rough.
# B1: Ydj1; a variant is named by its letters at X, in order (parent)
# chain: MVKETKFYDILGVPVTATDVEIKKAYRKCALKYHPDKNPSEEAAEKFKEASAAYEILSDPEKRDIYDQFGEDGLSGAGGAGGFPGGGFGFGDDIFSQFFGAGGAQRPRGPQRGKDIKHEISASLEELYKGRTAKLALNKQILCKECEGRGGKKGAVKKCTSCNGQGIKFVTRQMGPMIQRFQTECDVCHGTGDIIDPKDRCKSCNGKKVENERKILEVHVEPGMKDGQRIVFKGEADQAPDVIPGDVVFIVSERPHKSFKRDGDDLVYEAEIDLLTAIAGGEFALEHVSGDWLKVGIVPGEVIAPGMRKVIEGKGMPIPKYGGYGNLIIKFTIKFPENHFTSEENLKKLEEILPPRIVPAIPKKATVDECVLADFDPAKYNRTRASRGGANYDSDEEEQGGEGVQCXXX
# Variants of: B1
# Assay: enrichment factor, frequency at 37 °C / frequency at 25 °C (thermotolerance selection) (ratio); higher = more growth at 37 °C, higher likelihood of farnesylation
# Details: with Saccharomyces cerevisiae ydj1Δ (yWS304); selective temperature 37 °C; reference temperature 25 °C
row,Variant,enrichment factor
1,NRC,0.22
2,NRE,0.261
3,NRD,0.171
4,NRA,0.0799
5,RRD,0.111
6,RRC,0.136
7,RRE,0.153
8,RRA,0.204
9,KQT,1.91
10,KQV,1.52
11,KQY,1.64
12,KQW,1.57
13,NQW,1.28
14,NQY,2.02
15,NQT,1.98
16,NQV,1.73
17,HQY,2.67
18,HQV,2.48
19,HQW,1.35
20,HQT,2.08
21,GQW,0.454

row,Variant,enrichment factor
1,GQY,1.14
2,GQT,1.73
3,GQV,1.64
4,CRE,0.184
5,CRD,0.156
6,CRC,0.182
7,CRA,0.118
8,MRE,0.0956
9,MRC,0.159
10,MRD,0.17
11,MRA,0.128
12,QRA,0.14
13,QRD,0.142
14,QRC,0.129
15,QRE,0.14
16,IQY,1.55
17,IQW,1.1
18,IQT,2.12
19,IQV,2.45
20,RQW,1.67
21,RQT,1.85

row,Variant,enrichment factor
1,RQY,1.77
2,RQV,1.92
3,FRA,1.08
4,FRE,0.182
5,FRC,0.279
6,FRD,0.274
7,FRF,1.07
8,FQV,1.91
9,FQW,0.956
10,FQY,1.21
11,FQT,1.93
12,CQT,1.32
13,CQV,0.662
14,CQY,1.68
15,CQW,0.293
16,VQY,2.59
17,VQT,1.73
18,VQV,2.93
19,VQW,1.66
20,HRE,0.126
21,HRF,0.26

row,Variant,enrichment factor
1,HRC,0.562
2,HRA,0.223
3,HRD,0.112
4,QQY,1.95
5,QQV,2.14
6,QQW,1.96
7,QQT,1.57
8,EQV,1.44
9,EQT,1.25
10,EQY,1.57
11,EQW,1.39
12,LQT,1.55
13,LQY,1.48
14,LQV,1.68
15,LQW,1.24
16,LRA,0.212
17,LRD,0.154
18,LRC,0.0895
19,LRE,0.115
20,DRA,0.216

# From the supplement of paper PMC10320760
